Here are results for one molecule from US20250114486A1, “MARKED FATTY ACID DERIVATIVE, PRECURSOR COMPOUND THEREOF, AND USE THEREOF IN CONTRAST AGENT” (BEIJING NORMAL UNIVERSITY, priority 2022, published 2025).

Each structure is given as a SMILES string. Some entries of the source have several records that differ or are many. The other results are left out here. An entry can have further records. Results that share an entry appear to be repeats (runs, samples, wells or individuals).

This series is described as follows: In vivo biodistribution of radioactive ^99mTc complexes in female SD rats. As to conditions: 30 min post-injection. Also noted: species or system female Sprague-Dawley (SD) rats. How it is done: Female SD rats (180-220 g, n=3) were fasted for 12 h before the experiment, and the purified radioactive 99mTc complexes 78-81 were prepared into physiological saline (containing 10% ethanol) solutions of about 250-350 μCi/mL. 200 μL of the above solution was injected into the tail vein of female SD rats, and the rats were killed by cervical dislocation at five time points, 15, 30, 60, 120 and 240 min after the tail vein injection. The blood, brain, heart, liver, spleen, lung, kidney, muscle, bone, large intestine, small intestine, stomach and tail were collected, weighed and counted, and the count distribution of each tissue and organ was calculated (unit: % ID/g, the unit of large intestine, small intestine and stomach is % ID), and the data are the mean±standard deviation of three mice in each phase. At the same time, 200 μL of the above solution was diluted to 20 mL, which was used as the % ID without deducting the tail count.

With `COC(C)(C)C[N+]#[C][99Tc-5]([C]#[N+]CC(C)(C)OC)([C]#[N+]CC(C)(C)OC)([C]#[N+]CC(C)(C)OC)([C]#[N+]CC(C)(C)OC)[C]#[N+]CC(C)(C)OCCCCSCCCCC(=O)O` [^99mTc complex 79], the Heart-to-Lungs ratio was 8.21 ± 0.51 [table] and 8.21 [text].
